Source: the supplement of paper PMC10126150
Values marked as one replicate rest on one cluster of the flow cell; about a third of the high ones do not repeat.

System: ATP
Test: switch fluorescence ratio, 500 uM ATP over buffer (Cy3 cluster intensity, sum of 5 cycles each) (fold (ratio)); higher = stronger signal-on switching upon ATP binding; sequences stand for … in TCGTCGGCAGCGTCAGATGTGTATAAGAGACAGTTTTTTTTTTTTTTTTTTTTTTTTT…TC
Details: aptamer strand: ATP DNA aptamer (quencher-CACCTGGGGGAGTATTGCGGAGGAAGG + anchor), 100 nM annealed; ATP concentration: 500 uM; one replicate
In short: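 Cy3-labelled switching-strand clusters on a modified Illumina MiSeq flow-cell were annealed to 100 nM quencher-labelled ATP aptamer, imaged in selection buffer, then imaged after 15 min with 500 uM ATP at 22 °C. Five buffer/ATP cycles ran, with NaOH stripping and re-annealing between them. The fluorescence ratio is summed target-cycle over summed buffer-cycle Cy3 intensity per cluster, averaged per switch-domain sequence. Clusters outside 100-1000 RFU were excluded.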
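Note: ATP exposure 15 min at 22 °C before imaging.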

Row | Sequence | switch fluorescence ratio
1 | CTGAAGAGTC | 1.01
2 | CTTAGTTACA | 1.03
3 | GAGAGCTGGT | 0.999
4 | AATTCCCTAG | 1.04
5 | TCGTAAGCGA | 1.18
6 | CGTTCCTTA | 1.02
7 | TGTTTTTGTG | 1.02
8 | GATGTTGGAT | 0.993
9 | GGTTAGTTAT | 0.998
10 | TAATTGTACG | 1.01
11 | CGTCAAGCAC | 3.04
12 | AAGTACACGA | 1.2
13 | GTGCGGGGAG | 1.03
14 | TGCGATCTGG | 0.978
15 | GTAATCGTTT | 0.983
16 | CGGGGTTACA | 0.991
17 | TACCACGCTG | 1.12
18 | CTGACATAGG | 1.03
19 | CTGGACCACA | 0.994
20 | GGGTGTGCGA | 0.987
21 | TAATATCCAT | 1.05
22 | CACGGTGAGG | 0.995
23 | ATTCCGGACG | 0.964

Row | Sequence | switch fluorescence ratio
24 | CGAACCGTTC | 1.2
25 | TAAAGCTCTA | 1.04
26 | AGAGCATGAC | 1.26
27 | AGGAAGGTTC | 1.03
28 | TCCTCAAC | 1.02
29 | AGTGTGTGAT | 1.01
30 | GTGTAAATCC | 0.978
31 | AGTATACTAT | 0.964
32 | GTGCGGGCTA | 1.05
33 | GCGAGGTTAG | 1
34 | CGATCTGCAC | 1.55
35 | TATGCATTCG | 0.96
36 | AATAAGTAT | 0.981
37 | CATATTGAGG | 0.924
38 | TCGCATCTAT | 1.1
39 | TTGTCAGTCG | 0.978
40 | CGGTGCTGTG | 1.03
41 | ATCGGACTAT | 1.04
42 | GAGAATGAGA | 0.976
43 | TTTCGTATG | 1.03
44 | TAGAAGCTCA | 1.03
45 | GGTTATGGCA | 0.987
46 | TTAGAATAGC | 1.01

Row | Sequence | switch fluorescence ratio
47 | TGGGGAAGAC | 1.3
48 | AGTGACTTCT | 1
49 | TGATCCGCA | 3.51
50 | TTCCCCTATG | 1.04
51 | CTAATGCAAT | 1.97
52 | CTGGTCTCTG | 0.968
53 | ATGGGTCACT | 1.02
54 | TTATCTCGCG | 0.988
55 | TACGTGTA | 1.04
56 | TTAGCAGGTT | 1.06
57 | TACCGGCACA | 1.25
58 | TTGGCACATT | 0.931
59 | CAGGGGTGTC | 0.996
60 | GATTCCTTA | 1
61 | TTATAAGGAG | 0.999
62 | TTGTTAGGCG | 1
63 | TTAACCAACC | 1.21
64 | GGCCTAAAAT | 0.968
65 | GGGCACTAGG | 1.04
66 | CCTTGTCCGG | 1.11
67 | TTTGCTGGGT | 0.978
68 | GCGAGTCAGG | 1.06
69 | TTTTGGGCAC | 0.994

Row | Sequence | switch fluorescence ratio
70 | GAATCGTCTT | 1
71 | TGGAAAGCCA | 0.973
72 | GTCAAAATTA | 0.993
73 | TCTATGGTA | 0.984
74 | CGGTAGACGT | 1.04
75 | AGGTGCCACT | 0.992
76 | CGTCCGAAAC | 2.8
77 | CTCTGATGGC | 1.11
78 | CAGTTTGCGG | 1.08
79 | GGGATTGAAA | 0.923
80 | CGGTGATTCA | 0.975
81 | TTAACGCGTC | 0.983
82 | CCGGTTCTCA | 1.05
83 | CGCTACTTTC | 1.29
84 | ATCGTGCGTG | 0.988
85 | CCGAATCTA | 1.11
86 | ATAAGTACAG | 1.32
87 | ACGGGAAACT | 1.07
88 | CAAGCTCCTA | 1.02
89 | CGCCAATCGA | 1.19
90 | ACAGTACAG | 1.43
91 | AGCAGGCCTG | 1.02
92 | TTGCCCATGA | 0.958

Row | Sequence | switch fluorescence ratio
93 | AGTTAGGTTG | 1.02
94 | AGCCGCGGAC | 2.04
95 | GGCTTACATG | 0.985
96 | CATCATTCTT | 0.979
97 | TCTGCGAAT | 3.5
98 | CGTGAAGACC | 1.03
99 | GTTTCAGATT | 0.995
100 | CGACAAACGT | 1.25
101 | TCTGTCATCG | 1.06
102 | GTATATATGT | 1
103 | CATTAGGGAG | 1.01
104 | ACGGGCAAGA | 1.04
105 | TATATTAGGA | 0.986
106 | AGATAAGGGG | 0.996
107 | CAATTTGACT | 1.03
108 | TCATGTCCTA | 0.944
109 | ATCCCTCTGT | 1.01
110 | GCGAGGCACG | 1.1
111 | TGCGTGTACG | 1.04
112 | GATGAACCAC | 1.09
113 | TCCTCCACTT | 2.57
114 | TGGTGTCTTG | 0.984
115 | ATATATAGAG | 0.912

Row | Sequence | switch fluorescence ratio
116 | GGAGTGTTAC | 1.01
117 | TTTGTCTTGA | 1.17
118 | ACTTAGGTTA | 1.06
119 | GATCTTGTGG | 0.971
120 | GTCACCCCGA | 1.14
121 | TCAAAGGGTA | 1.01
122 | ATATCCAACG | 0.988
123 | CCCCGTAAGG | 1.1
124 | CCGTGCGCCG | 1.03
125 | ATTAAAAATT | 0.986
126 | TTATCGCTCG | 0.992
127 | GGACCGTGCT | 0.97
128 | GAGAATCACT | 1.03
129 | AAGTGTTGGA | 1.03
130 | TCAGTGTTGC | 0.988
131 | GTTTGATTGC | 0.977
132 | TCCCCGGGAG | 1.07
133 | ATCGCTGAAA | 0.982
134 | AATTCACTGT | 0.988
135 | ACTAGTCCGA | 1.02
136 | CGTTTGTTAC | 1.11
137 | TTGAATGCTC | 1.08
138 | TTCAATGAG | 1.02

Row | Sequence | switch fluorescence ratio
139 | AAAGTGATCA | 0.961
140 | AAGGCCAAGA | 1
141 | GAGGTTACAT | 1.01
142 | CGTCTGATGT | 1.02
143 | GGCACAAACA | 1.03
144 | GCGGATAGTT | 0.987
145 | ACCCCTTGAG | 1.03
146 | ATCGCAAGTT | 1.05
147 | ATGTACCTCT | 1.04
148 | AGAATGTTGG | 0.971
149 | ATCCAGCCTG | 0.973
150 | GCCTCAGAGT | 1.02
151 | GGCAGATATA | 1.02
152 | GGATTTCTAG | 0.988
153 | AGTCATGGGT | 1.02
154 | ATTAATGCAT | 1.01
155 | GGCGTATAGG | 0.985
156 | ATTTTCCCAG | 1.13
157 | TGGGCGCTGC | 1.01
